According to PMC5303829, “A CAF40-binding motif facilitates recruitment of the CCR4-NOT complex to mRNAs targeted by Drosophila Roquin” (Nature Communications, 2017):
Residue numbers refer to the chain shown, from its start. No constants are given. Whether binding was seen depends on the method and setting. In cells and extracts the contact can be indirect. Some binding calls cover weakened binding; strength is not graded here. Tags and fused reporters may be left off the sequences shown.

Chains of the proteins cited; added tags and fusions are not shown.
UniProt Q7JVP2: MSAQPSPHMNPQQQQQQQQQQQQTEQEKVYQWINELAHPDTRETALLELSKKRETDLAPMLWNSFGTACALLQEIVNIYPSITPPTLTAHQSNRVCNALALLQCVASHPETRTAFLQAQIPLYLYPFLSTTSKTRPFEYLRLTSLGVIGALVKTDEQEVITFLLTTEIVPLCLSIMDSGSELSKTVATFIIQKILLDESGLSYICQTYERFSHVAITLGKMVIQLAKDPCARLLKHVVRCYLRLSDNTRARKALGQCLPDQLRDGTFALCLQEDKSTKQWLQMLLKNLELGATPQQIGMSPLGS

Key:
Experiment in all cases: co-IP; GFP-tagged Dm Roquin and HA-tagged CAF40 co-expressed in Dm S2 cells in the presence of HA-tagged CN9BD; lysates treated with RNase A (Fig. 5)
[1] = target: T1, GFP-tagged Dm Roquin (full-length, wild-type) (Drosophila melanogaster) (UniProt Q9VV48)
T1 sequence: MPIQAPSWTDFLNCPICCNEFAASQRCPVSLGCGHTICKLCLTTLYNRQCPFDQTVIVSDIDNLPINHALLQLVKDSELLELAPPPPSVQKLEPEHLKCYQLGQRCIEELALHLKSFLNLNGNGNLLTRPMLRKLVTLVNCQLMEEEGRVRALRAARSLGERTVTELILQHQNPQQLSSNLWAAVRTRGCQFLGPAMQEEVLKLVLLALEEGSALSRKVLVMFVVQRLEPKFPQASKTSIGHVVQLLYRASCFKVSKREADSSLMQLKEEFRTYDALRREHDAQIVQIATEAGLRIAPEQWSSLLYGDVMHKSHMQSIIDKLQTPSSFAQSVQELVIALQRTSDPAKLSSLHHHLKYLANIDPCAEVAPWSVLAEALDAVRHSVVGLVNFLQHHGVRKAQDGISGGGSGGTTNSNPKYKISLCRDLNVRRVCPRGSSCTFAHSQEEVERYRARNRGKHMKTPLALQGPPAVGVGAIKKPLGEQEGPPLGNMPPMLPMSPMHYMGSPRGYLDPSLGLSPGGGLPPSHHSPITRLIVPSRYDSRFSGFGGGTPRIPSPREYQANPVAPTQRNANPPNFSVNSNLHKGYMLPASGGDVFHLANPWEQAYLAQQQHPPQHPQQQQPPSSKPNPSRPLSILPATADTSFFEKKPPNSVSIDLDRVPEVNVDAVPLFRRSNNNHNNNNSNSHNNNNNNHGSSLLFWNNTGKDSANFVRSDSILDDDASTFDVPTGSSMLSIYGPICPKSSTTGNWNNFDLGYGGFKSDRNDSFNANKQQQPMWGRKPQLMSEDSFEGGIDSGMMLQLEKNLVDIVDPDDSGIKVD

[2] = target: T2, GFP-tagged Dm Roquin M2 mutant (Drosophila melanogaster) (UniProt Q9VV48)
T2 sequence: T1 sequence with L805E, V809E

[3] = target: T3, GFP-tagged Dm Roquin ΔNBM (Drosophila melanogaster) (UniProt Q9VV48)
T3 sequence: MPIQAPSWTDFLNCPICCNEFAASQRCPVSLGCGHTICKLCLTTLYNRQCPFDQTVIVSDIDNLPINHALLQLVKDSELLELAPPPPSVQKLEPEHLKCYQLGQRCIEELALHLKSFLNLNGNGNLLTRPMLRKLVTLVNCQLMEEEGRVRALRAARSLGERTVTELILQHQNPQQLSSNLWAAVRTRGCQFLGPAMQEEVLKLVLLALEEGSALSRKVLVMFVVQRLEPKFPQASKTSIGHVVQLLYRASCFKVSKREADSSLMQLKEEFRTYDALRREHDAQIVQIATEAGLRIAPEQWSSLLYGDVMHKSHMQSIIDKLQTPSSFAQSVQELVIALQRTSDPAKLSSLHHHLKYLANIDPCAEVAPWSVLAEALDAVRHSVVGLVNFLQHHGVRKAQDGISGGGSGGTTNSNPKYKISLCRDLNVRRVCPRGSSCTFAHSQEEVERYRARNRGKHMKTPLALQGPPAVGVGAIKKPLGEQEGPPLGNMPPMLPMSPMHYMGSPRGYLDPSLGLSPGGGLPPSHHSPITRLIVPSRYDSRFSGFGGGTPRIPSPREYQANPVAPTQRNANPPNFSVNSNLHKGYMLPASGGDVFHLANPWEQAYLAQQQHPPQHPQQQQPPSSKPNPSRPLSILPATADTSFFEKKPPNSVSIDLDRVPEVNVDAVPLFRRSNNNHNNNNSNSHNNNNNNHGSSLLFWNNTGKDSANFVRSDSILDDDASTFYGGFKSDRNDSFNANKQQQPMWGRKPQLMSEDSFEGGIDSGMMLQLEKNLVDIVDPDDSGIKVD

HA-tagged Dm CAF40 (full-length, wild-type) (from UniProt Q7JVP2 1-304)
binding [1]: binds
binding [2]: no binding
binding [3]: binds
